{"source": "PubChem BioAssay (NCATS)", "key": {"[1]": {"biological_target": "Histamine N-methyltransferase (Homo sapiens) (UniProt P50135)", "sequence (P50135 whole entry, looked up)": "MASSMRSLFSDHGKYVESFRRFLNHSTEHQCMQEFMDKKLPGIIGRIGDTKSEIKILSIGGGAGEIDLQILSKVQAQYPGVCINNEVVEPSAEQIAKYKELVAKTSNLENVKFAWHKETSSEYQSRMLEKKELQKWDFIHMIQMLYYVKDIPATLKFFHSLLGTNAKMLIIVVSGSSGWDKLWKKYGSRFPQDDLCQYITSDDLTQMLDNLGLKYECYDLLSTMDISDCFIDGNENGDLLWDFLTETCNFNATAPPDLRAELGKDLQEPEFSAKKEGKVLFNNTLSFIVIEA", "assay": "Confirmatory Screen for Target Class Profiling of Small Molecule Inhibitors of Methyltransferases (AID 1745852);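 further: inhibitor potency for blocking SAH production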", "conditions": "MTase-Glo luminescence, SAH detection, recombinant enzyme; measured here: HNMT inhibition potency"}, "[2]": {"biological_target": "Nicotinamide N-methyltransferase (Homo sapiens) (UniProt P40261)", "sequence (P40261 whole entry, looked up)": "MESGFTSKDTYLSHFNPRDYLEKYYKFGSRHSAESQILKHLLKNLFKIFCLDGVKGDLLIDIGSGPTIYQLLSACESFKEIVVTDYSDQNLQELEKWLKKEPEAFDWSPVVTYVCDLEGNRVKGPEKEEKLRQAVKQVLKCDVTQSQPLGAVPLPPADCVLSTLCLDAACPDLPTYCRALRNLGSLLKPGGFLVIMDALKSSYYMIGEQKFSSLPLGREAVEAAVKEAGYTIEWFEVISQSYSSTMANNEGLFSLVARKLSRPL", "assay": "Confirmatory Screen for Target Class Profiling of Small Molecule Inhibitors of Methyltransferases (AID 1745852)", "conditions": "MTase-Glo luminescence, SAH detection, recombinant enzyme; measured here: NNMT inhibition potency"}, "[3]": {"assay": "NCATS anti-infectives library activity on the primary C. elegans qHTS viability assay (AID 1745855)", "conditions": "C. elegans worm area imaging", "method_in_brief": "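Viability read-out is GFP fluorescence of PE254-GFP-FLuc C. elegans, measured by laser cytometry (488 nm) at day 0, 3 and 7. Ten L1 worms per well were incubated 7 days at 21 °C with compounds and bacterial capsules in S medium.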"}, "[4]": {"assay": "qHTS Assay for Modulators of Human Peripheral Myelin Protein 22 (PMP22) Expression/Activity (AID 1967)", "conditions": "Cell-based PMP22 reporter, dual-color luciferase ratio", "method_in_brief": "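Readout is the corrected green/red luminescence ratio after 24 h compound exposure, normalised to untreated cells (0%). Engineered MSC80 mouse Schwann cells express green luciferase from the mouse Pmp22 promoter and red luciferase from EF-alpha as internal control.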"}, "[5]": {"assay": "Nrf2 qHTS screen for inhibitors: Validation (AID 493153)", "conditions": "A549 ARE-Fluc reporter, 18-24 h; AC50: CellTiter-Fluor fluorescence read, measured here: cytotoxicity CellTiter-Fluor AC50; viability change: measured here: cytotoxicity max response", "method_in_brief": "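Luminescence from an ARE-firefly luciferase reporter in A549 cells gives Nrf2 inhibition; an earlier CellTiter-Fluor fluorescent read flags cytotoxicity. Cells in 5% FBS OPTI-MEM received compound dilution series for 18-24 h at 37°C.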"}, "[6]": {"biological_target": "Phenylethanolamine N-methyltransferase (Homo sapiens) (UniProt P11086)", "sequence (P11086 whole entry, looked up)": "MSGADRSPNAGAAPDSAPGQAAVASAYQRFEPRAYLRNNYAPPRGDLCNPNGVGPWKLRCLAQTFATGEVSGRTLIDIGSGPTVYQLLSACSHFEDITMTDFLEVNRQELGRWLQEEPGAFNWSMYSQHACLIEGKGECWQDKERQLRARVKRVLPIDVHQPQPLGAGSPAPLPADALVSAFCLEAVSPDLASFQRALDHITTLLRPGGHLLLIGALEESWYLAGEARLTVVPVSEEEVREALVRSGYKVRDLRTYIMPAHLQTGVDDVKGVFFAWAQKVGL", "assay": "Confirmatory Screen for Target Class Profiling of Small Molecule Inhibitors of Methyltransferases (AID 1745852)", "conditions": "MTase-Glo luminescence, SAH detection, recombinant enzyme; measured here: PNMT inhibition potency"}, "[7]": {"biological_target": "Catechol O-methyltransferase (Homo sapiens) (UniProt P21964)", "sequence (P21964 whole entry, looked up)": "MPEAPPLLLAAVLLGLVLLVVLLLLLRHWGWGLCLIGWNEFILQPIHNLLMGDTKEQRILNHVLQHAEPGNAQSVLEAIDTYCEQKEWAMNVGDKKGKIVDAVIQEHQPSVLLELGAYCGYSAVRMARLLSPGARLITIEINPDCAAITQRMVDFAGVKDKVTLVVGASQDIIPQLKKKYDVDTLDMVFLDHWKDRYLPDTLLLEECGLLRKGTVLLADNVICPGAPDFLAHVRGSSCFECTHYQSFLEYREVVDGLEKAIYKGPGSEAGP", "assay": "Confirmatory Screen for Target Class Profiling of Small Molecule Inhibitors of Methyltransferases (AID 1745852)", "conditions": "MTase-Glo luminescence, SAH detection, recombinant enzyme; measured here: COMT inhibition potency"}, "[8]": {"conditions": "day 7, measured here: worm area, day 3"}, "[9]": {"conditions": "measured here: green reporter channel AC50, mouse Pmp22 promoter in mouse Schwann cells"}, "[10]": {"conditions": "measured here: red reporter channel AC50, EF-alpha promoter control reporter in MSC80 mouse Schwann cells"}, "[11]": {"conditions": "day 7, measured here: worm number, day 3"}}, "note": "The other results are listed elsewhere or left out. Further columns of the screen follow, without active or inactive calls. The list favours compounds with an active or inconclusive main result. For some assays here: The note in brackets gives the kind of curve behind each potency; many fits are weak. Tags describe the fitted curve by direction and shape.", "data": [{"smiles": "CCOC(=O)c1ccnc2cc(C(OCCN3CCCCC3)c3ccccc3Cl)sc12", "note": "(stereo not drawn)", "values": [{"measurement": "IC50", "setting": "[1]", "result": "24.3 µM [falling, single point]"}]}, {"smiles": "COc1ccc(-c2cc3c(cn2)CN(C)CCN3)cn1", "values": [{"measurement": "IC50", "setting": "[1]", "result": "44.1 µM [falling, partial curve]"}]}, {"smiles": "CC(=O)NC[C@H]1C[C@@H]2CCN1C[C@@H]2c1cc(-c2ccc3ccccc3c2)nn1C", "values": [{"measurement": "IC50", "setting": "[1]", "result": "12.4 µM [falling, partial curve]"}]}, {"smiles": "Cc1nnc2n1-c1sc(CCc3ccc(CC(C)C)cc3)cc1C(c1ccccc1Cl)=NC2C", "note": "(stereo not drawn)", "values": [{"measurement": "IC50", "setting": "[2]", "result": "21.5 µM [falling, partial curve]"}]}, {"smiles": "COC1=C[C@]23CCCN2CCc2cc4c(cc2[C@@H]3[C@@H]1O)OCO4", "values": [{"measurement": "AC50", "setting": "[3]; [8]", "result": "0.29 µM [falling, partial curve, poor fit]"}]}, {"smiles": "CN1CCC[C@@H]1Cc1c[nH]c2ccc(Nc3ncccc3[N+](=O)[O-])cc12", "values": [{"measurement": "IC50", "setting": "[1]", "result": "13.7 µM [falling, partial curve]"}]}, {"smiles": "O=C1c2ccccc2C(=O)c2ccccc21", "values": [{"measurement": "AC50", "setting": "[3]; [8]", "result": "0.0092 µM [falling, full curve, poor fit]"}]}, {"smiles": "COc1ccc2[nH]c3c(c2c1)CCNC3", "values": [{"measurement": "AC50", "setting": "[4]; [9]", "result": "95.3 µM [falling, single point]"}, {"measurement": "AC50", "setting": "[4]; [10]", "result": "30.1 µM [rising, single point]"}, {"measurement": "viability change", "setting": "[5]", "result": 11.8, "unit": "%"}, {"measurement": "IC50", "setting": "[1]", "result": "24.3 µM [falling, partial curve]"}]}, {"smiles": "CCCN1CCc2cc(O)cc3c2[C@H]1Cc1ccc(O)c(O)c1-3", "values": [{"measurement": "IC50", "setting": "[1]", "result": "21.7 µM [falling, partial curve, poor fit]"}]}, {"smiles": "CN(CCc1ccccn1)C[C@H]1CN2CC[C@H]1C[C@@H]2CNC(=O)Nc1ccsc1", "values": [{"measurement": "IC50", "setting": "[1]", "result": "31.2 µM [falling, partial curve]"}]}, {"smiles": "C[C@@H]1[C@@H]2Cc3ccc(O)cc3[C@@]1(C)CCN2CC1CC1", "values": [{"measurement": "IC50", "setting": "[1]", "result": "21.7 µM [falling, partial curve, poor fit]"}]}, {"smiles": "Oc1ccc2c(c1)C13CCCC[C@H]1[C@@H](C2)N(CC1CCC1)CC3", "values": [{"measurement": "IC50", "setting": "[1]", "result": "21.5 µM [falling, partial curve]"}]}, {"smiles": "CCCN1CCC[C@@H](c2cccc(O)c2)C1", "values": [{"measurement": "IC50", "setting": "[1]", "result": "19.3 µM [falling, partial curve]"}]}, {"smiles": "COc1cc(N2CCN(C)CC2)ccc1N", "values": [{"measurement": "IC50", "setting": "[6]", "result": "17.1 µM [falling, partial curve]"}]}, {"smiles": "C1=C2CCCN[C@H]2[C@@H]2C[C@H]1[C@H]1CCCCN1C2", "values": [{"measurement": "AC50", "setting": "[3]; [11]", "result": "9.16 µM [rising, partial curve, poor fit]"}]}, {"smiles": "CCCN(CCC)[C@@H]1CCc2ccc(O)cc2C1", "values": [{"measurement": "IC50", "setting": "[1]", "result": "24.3 µM [falling, partial curve, poor fit]"}]}, {"smiles": "O=c1ccc2ccc3occc3c2o1", "values": [{"measurement": "AC50", "setting": "[3]; day 7, measured here: worm number", "result": "26.5 µM [falling, partial curve]"}, {"measurement": "AC50", "setting": "[3]; [11]", "result": "0.746 µM [falling, partial curve, poor fit]"}]}, {"smiles": "C=C[C@H]1CN2CC[C@H]1C[C@@H]2CNC(=O)Nc1ccc(Br)cc1", "values": [{"measurement": "IC50", "setting": "[1]", "result": "31.2 µM [falling, partial curve]"}]}, {"smiles": "CC1Oc2cc3c(-c4c(O)cc(O)c5c(O)c6c(cc45)OC(C)C(C)C6=O)c(O)cc(O)c3c(O)c2C(=O)C1C", "note": "(stereo not drawn)", "values": [{"measurement": "IC50", "setting": "[7]", "result": "21.5 µM [falling, partial curve]"}, {"measurement": "IC50", "setting": "[1]", "result": "15.2 µM [falling, partial curve]"}, {"measurement": "IC50", "setting": "[6]", "result": "21.5 µM [falling, partial curve]"}]}, {"smiles": "CC[C@H]1CN2CC[C@H]1C[C@@H]2CNCc1ccc(-c2ccccc2)cc1", "values": [{"measurement": "IC50", "setting": "[1]", "result": "35 µM [falling, partial curve]"}]}, {"smiles": "N#Cc1ccc(N2CCN(C(=O)COc3ccc4[nH]cc(CCN)c4c3)CC2)cc1", "values": [{"measurement": "IC50", "setting": "[1]", "result": "0.429 µM [falling, full curve]"}]}, {"smiles": "CCCN(CCC)CCc1ccc(O)c(O)c1", "values": [{"measurement": "AC50", "setting": "[4]; [10]", "result": "75.7 µM [falling, partial curve]"}, {"measurement": "IC50", "setting": "[7]", "result": "7.69 µM [rising, partial curve]"}]}, {"smiles": "CN(C)c1cc2c(cc1Sc1nc3c(N)nccc3n1CCNCC(C)(C)C)OCO2", "values": [{"measurement": "IC50", "setting": "[1]", "result": "21.5 µM [falling, partial curve]"}, {"measurement": "IC50", "setting": "[2]", "result": "21.5 µM [falling, partial curve]"}]}, {"smiles": "CCCCN1[C@@H]2CC[C@H]1CC(OC(c1ccc(F)cc1)c1ccc(F)cc1)C2", "note": "(stereo partly drawn)", "values": [{"measurement": "IC50", "setting": "[1]", "result": "19.2 µM [falling, partial curve]"}]}, {"smiles": "CC(C)OC(=O)c1ccnc2cc(C(OCCN3CCCCC3)c3ccccc3Cl)sc12", "note": "(stereo not drawn)", "values": [{"measurement": "IC50", "setting": "[1]", "result": "24.3 µM [falling, partial curve, poor fit]"}]}, {"smiles": "NCC(O)c1cc(O)c(O)cc1F", "note": "(stereo not drawn)", "values": [{"measurement": "AC50", "setting": "[4]; [9]", "result": "84.9 µM [falling, single point]"}, {"measurement": "IC50", "setting": "[7]", "result": "7.69 µM [rising, partial curve]"}, {"measurement": "IC50", "setting": "[6]", "result": "3.43 µM [rising, full curve]"}]}, {"smiles": "CN(N=O)c1ccc(O)c(O)c1", "values": [{"measurement": "AC50", "setting": "[4]; [9]", "result": "95.3 µM [falling, single point]"}, {"measurement": "IC50", "setting": "[7]", "result": "21.7 µM [falling, partial curve]"}]}]}
